Reference: publication PMC6249039 (Journal of medicinal chemistry, 2018)

What was measured:
[1] = target: Human MetAP1 Mn2+ isoform (Homo sapiens, UniProt P53582); experiment: Cross-inhibition screen, human methionine aminopeptidase 1; assay type: biochemical; details: read-out: Percent inhibition, Human MetAP1 Mn2+ isoform
NDM-1 = NDM-1 (Klebsiella pneumoniae, UniProt C7C422); experiment: biochemical; details: read-out: Percent inhibition, NDM-1

Row | Structure (SMILES) | inhibition at 200 µM [1] [%] | inhibition at 200 µM (NDM-1) [%]
1 | Nc1cccc(C(=O)O)c1O [Compound 23] | 0 | –
2 | Cc1nc(C(=O)O)c(O)c(=O)[nH]1 [Compound 19] | 0 | –
3 | Cc1cc(=O)c(O)c(C(=O)O)[nH]1 [Compound 17, 3-Hydroxy-6-methyl-4-oxo-1,4-dihydropyridine-2-carboxylic acid] | 0 | –
4 | Cc1cc(=O)c(O)c(C(=O)O)o1 [Compound 1, 3-Hydroxy-6-methyl-4-oxo-4H-pyran-2-carboxylic acid] | – | 13
